Article PMC9911399, “Two distinct binding modes provide the RNA-binding protein RbFox with extraordinary sequence specificity”
Positions count from the first letter of the chain named. This is one part of the list.

T1: RBFOX1 RRM (Homo sapiens, UniProt Q9NWB1 109-208)
T1 sequence: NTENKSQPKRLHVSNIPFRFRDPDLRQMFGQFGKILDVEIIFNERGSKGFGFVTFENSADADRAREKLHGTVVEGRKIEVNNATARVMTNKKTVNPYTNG

B1: UCUCGCC (DNA:RNA)
RNA: GGGAGACCGGAAUUCAGAUUGUCCUCUCGCCUUAAAUCCCGUCGUAGCCACCA
DNA 1: CAATCTGAATTCCGGTCTCCC
DNA 2: TGGTGGCTACGACGGGATT
B2: UCGAAUA (DNA:RNA)
RNA: B1 RNA with U27G, C28A, G29A, C30U, C31A
DNA 1: CAATCTGAATTCCGGTCTCCC
DNA 2: TGGTGGCTACGACGGGATT
B3: AUAUUUC (DNA:RNA)
RNA: B1 RNA with U25A, C26U, U27A, C28U, G29U, C30U
DNA 1: CAATCTGAATTCCGGTCTCCC
DNA 2: TGGTGGCTACGACGGGATT
B4: UAUAGUA (DNA:RNA)
RNA: B1 RNA with C26A, C28A, C30U, C31A
DNA 1: CAATCTGAATTCCGGTCTCCC
DNA 2: TGGTGGCTACGACGGGATT
B5: AGCUGUU (DNA:RNA)
RNA: B1 RNA with U25A, C26G, U27C, C28U, C30U, C31U
DNA 1: CAATCTGAATTCCGGTCTCCC
DNA 2: TGGTGGCTACGACGGGATT
B6: GAGAAUU (DNA:RNA)
RNA: GGGAGACCGGAAUUCAGAUUGUCCGAGAAUUUUAAAUCCCGUCGUAGCCACCA
DNA 1: CAATCTGAATTCCGGTCTCCC
DNA 2: TGGTGGCTACGACGGGATT
B7: GUAGUCC (DNA:RNA)
RNA: B1 RNA with U25G, C26U, U27A, C28G, G29U
DNA 1: CAATCTGAATTCCGGTCTCCC
DNA 2: TGGTGGCTACGACGGGATT
B8: GCAGCAG (DNA:RNA)
RNA: B6 RNA with A26C, G27A, A28G, A29C, U30A, U31G
DNA 1: CAATCTGAATTCCGGTCTCCC
DNA 2: TGGTGGCTACGACGGGATT
B9: GCGACAU (DNA:RNA)
RNA: B6 RNA with A26C, A29C, U30A
DNA 1: CAATCTGAATTCCGGTCTCCC
DNA 2: TGGTGGCTACGACGGGATT
B10: CCAUCUG (DNA:RNA)
RNA: B6 RNA with G25C, A26C, G27A, A28U, A29C, U31G
DNA 1: CAATCTGAATTCCGGTCTCCC
DNA 2: TGGTGGCTACGACGGGATT
B11: AACAUCU (DNA:RNA)
RNA: B6 RNA with G25A, G27C, A29U, U30C
DNA 1: CAATCTGAATTCCGGTCTCCC
DNA 2: TGGTGGCTACGACGGGATT
B12: GGGGUUG (DNA:RNA)
RNA: B6 RNA with A26G, A28G, A29U, U31G
DNA 1: CAATCTGAATTCCGGTCTCCC
DNA 2: TGGTGGCTACGACGGGATT
B13: CCGCCCA (DNA:RNA)
RNA: B1 RNA with U25C, U27G, G29C, C31A
DNA 1: CAATCTGAATTCCGGTCTCCC
DNA 2: TGGTGGCTACGACGGGATT
B14: UAGUGCA (DNA:RNA)
RNA: B1 RNA with C26A, U27G, C28U, C31A
DNA 1: CAATCTGAATTCCGGTCTCCC
DNA 2: TGGTGGCTACGACGGGATT
B15: GCCUCCG (DNA:RNA)
RNA: B1 RNA with U25G, U27C, C28U, G29C, C31G
DNA 1: CAATCTGAATTCCGGTCTCCC
DNA 2: TGGTGGCTACGACGGGATT
B16: CUUAUAC (DNA:RNA)
RNA: B1 RNA with U25C, C26U, C28A, G29U, C30A
DNA 1: CAATCTGAATTCCGGTCTCCC
DNA 2: TGGTGGCTACGACGGGATT
B17: CUAGCUG (DNA:RNA)
RNA: B6 RNA with G25C, A26U, G27A, A28G, A29C, U31G
DNA 1: CAATCTGAATTCCGGTCTCCC
DNA 2: TGGTGGCTACGACGGGATT
B18: GAAACCC (DNA:RNA)
RNA: B6 RNA with G27A, A29C, U30C, U31C
DNA 1: CAATCTGAATTCCGGTCTCCC
DNA 2: TGGTGGCTACGACGGGATT
B19: AUAAAUG (DNA:RNA)
RNA: B6 RNA with G25A, A26U, G27A, U31G
DNA 1: CAATCTGAATTCCGGTCTCCC
DNA 2: TGGTGGCTACGACGGGATT
B20: CUACCAC (DNA:RNA)
RNA: B1 RNA with U25C, C26U, U27A, G29C, C30A
DNA 1: CAATCTGAATTCCGGTCTCCC
DNA 2: TGGTGGCTACGACGGGATT
B21: UAAUUGU (DNA:RNA)
RNA: B6 RNA with G25U, G27A, A28U, A29U, U30G
DNA 1: CAATCTGAATTCCGGTCTCCC
DNA 2: TGGTGGCTACGACGGGATT
B22: GUAUUGG (DNA:RNA)
RNA: B6 RNA with A26U, G27A, A28U, A29U, U30G, U31G
DNA 1: CAATCTGAATTCCGGTCTCCC
DNA 2: TGGTGGCTACGACGGGATT
B23: UCGACCU (DNA:RNA)
RNA: B6 RNA with G25U, A26C, A29C, U30C
DNA 1: CAATCTGAATTCCGGTCTCCC
DNA 2: TGGTGGCTACGACGGGATT
B24: CCGUUAG (DNA:RNA)
RNA: B6 RNA with G25C, A26C, A28U, A29U, U30A, U31G
DNA 1: CAATCTGAATTCCGGTCTCCC
DNA 2: TGGTGGCTACGACGGGATT
B25: UAGUGCC (DNA:RNA)
RNA: B1 RNA with C26A, U27G, C28U
DNA 1: CAATCTGAATTCCGGTCTCCC
DNA 2: TGGTGGCTACGACGGGATT
B26: UCAGGAG (DNA:RNA)
RNA: B1 RNA with U27A, C28G, C30A, C31G
DNA 1: CAATCTGAATTCCGGTCTCCC
DNA 2: TGGTGGCTACGACGGGATT
B27: AAUAUCG (DNA:RNA)
RNA: B6 RNA with G25A, G27U, A29U, U30C, U31G
DNA 1: CAATCTGAATTCCGGTCTCCC
DNA 2: TGGTGGCTACGACGGGATT
B28: GUCUCGA (DNA:RNA)
RNA: B6 RNA with A26U, G27C, A28U, A29C, U30G, U31A
DNA 1: CAATCTGAATTCCGGTCTCCC
DNA 2: TGGTGGCTACGACGGGATT
B29: UACAGGA (DNA:RNA)
RNA: B6 RNA with G25U, G27C, A29G, U30G, U31A
DNA 1: CAATCTGAATTCCGGTCTCCC
DNA 2: TGGTGGCTACGACGGGATT
B30: AACUACU (DNA:RNA)
RNA: B6 RNA with G25A, G27C, A28U, U30C
DNA 1: CAATCTGAATTCCGGTCTCCC
DNA 2: TGGTGGCTACGACGGGATT
B31: AUUCAAC (DNA:RNA)
RNA: B1 RNA with U25A, C26U, G29A, C30A
DNA 1: CAATCTGAATTCCGGTCTCCC
DNA 2: TGGTGGCTACGACGGGATT

Molecular target: T1, RBFOX1 RRM
Assay: EMSA; HiTS-Eq, 1 nM pool, 10 min; buffer printed only for the single-RNA assays: 10 mM Tris pH 7.5, 150 mM NaCl, 3.4 mM EDTA, 0.001% NP-40, 30 C
Conditions: tags: His6 N-terminal (pET28a); label: 5' 32P
Summary of the method: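 Purified RbFox RRM, wild type or mutant, was incubated for 10 min in 50 µL with 1 nM of a 5′-radiolabelled RNA pool carrying 7 randomized nucleotides, whose flanks were annealed to DNA oligonucleotides, over a series of increasing protein concentrations. Unbound RNA was resolved on 8% native PAGE, cut out, reverse-transcribed, barcoded by PCR and sequenced on an Illumina HiSeq 2500. Relative association constants were derived from changes in read counts for each RNA species versus the control reaction and normalised to the cognate motif.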

Binder | binding signal
B1 | 0.0143 KA relative to UGCAUGU
B2 | 0.00387 KA relative to UGCAUGU
B3 | 0.00468 KA relative to UGCAUGU
B4 | 0.0114 KA relative to UGCAUGU
B5 | 0.0136 KA relative to UGCAUGU
B6 | 0.00866 KA relative to UGCAUGU
B7 | 0.00967 KA relative to UGCAUGU
B8 | 0.011 KA relative to UGCAUGU
B9 | 0.00923 KA relative to UGCAUGU
B10 | 0.00387 KA relative to UGCAUGU
B11 | 0.00023 KA relative to UGCAUGU
B12 | 0.0899 KA relative to UGCAUGU
B13 | 0.00911 KA relative to UGCAUGU
B14 | 0.018 KA relative to UGCAUGU
B15 | 0.00754 KA relative to UGCAUGU
B16 | 0.00089 KA relative to UGCAUGU

Binder | binding signal
B17 | 0.0136 KA relative to UGCAUGU
B18 | 0.00221 KA relative to UGCAUGU
B19 | 0.00485 KA relative to UGCAUGU
B20 | 0.00189 KA relative to UGCAUGU
B21 | 0.0153 KA relative to UGCAUGU
B22 | 0.0141 KA relative to UGCAUGU
B23 | 0.00995 KA relative to UGCAUGU
B24 | 0.0111 KA relative to UGCAUGU
B25 | 0.0169 KA relative to UGCAUGU
B26 | 0.00682 KA relative to UGCAUGU
B27 | 0.0033 KA relative to UGCAUGU
B28 | 0.0166 KA relative to UGCAUGU
B29 | 0.0027 KA relative to UGCAUGU
B30 | 0.000905 KA relative to UGCAUGU
B31 | 0.00205 KA relative to UGCAUGU
